Variants at the floor of the assay are shown more often than the library holds them. Where only a bound is given, the exact number is not on record here.

This is an account of results in the RNAGym collection of RNA variant scans (doi:10.1073/pnas.2313332121).

B1: TPR 5TU (parent)
chain: GGAUCUUCUCGAUCUAACAAAAAAGACAAAUCUGCCACAAAGCUUGAGAGCAUCUUCGGAUGCAGAGGCGGCAGCCUUCGGUGGCGCGAUAGCGCCAACGUUCUCAACUAUGACACGCAAAACGCGUGCUCCGUUGAAUGGAGUUUAUCAUG

Variants of B1 are the subject of the data set. As to the kind of experiment: polymerase ribozyme fitness, log enrichment relative to wild type (log ratio); higher = more active; in vitro selection for triplet polymerase activity. In short, it runs like this:
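Each subunit of a heterodimeric triplet polymerase ribozyme was represented by a PCR-built, transcribed mutant library that underwent triplicate single-round in vitro selection with frozen incubation at −7 °C. Extended constructs were recovered by gel excision, streptavidin-bead capture and RT-PCR, and Illumina sequencing of input and output libraries kept genotypes with ≥10 input reads and ≥1 read per output. Fitness is the logarithm of genotype enrichment relative to wild-type enrichment, from inverse-variance-weighted replicate averages, with a logarithm base of 2.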
For the variant C43U G70C U101C, the “polymerase ribozyme fitness (log ratio)” value was no more than -4.2.

C43U A52C U82A: the “polymerase ribozyme fitness (log ratio)” value is no more than -4.2. Take G42A G83U C96A: the “polymerase ribozyme fitness (log ratio)” value was no more than -4.2. With A40U G42U C54U G86A U90G A97G G117C U146A A147C, the “polymerase ribozyme fitness (log ratio)” value was no more than -4.2. With C43U C85G A107C, the “polymerase ribozyme fitness (log ratio)” value was no more than -4.2. In the case of U44G U45A G80A C87G A137C, the “polymerase ribozyme fitness (log ratio)” value was no more than -4.2. In the case of A40C U77C G88U C99U A115U A150C, the “polymerase ribozyme fitness (log ratio)” value was no more than -4.2.

Take A41U A113U G124C: the “polymerase ribozyme fitness (log ratio)” value was no more than -4.2. Regarding G42A U44G C57U G83A A110U A121U, the “polymerase ribozyme fitness (log ratio)” value is no more than -4.2. Take C43A U55A C87G C116A: the “polymerase ribozyme fitness (log ratio)” value is no more than -4.2. As to A40G A113U U148G, the “polymerase ribozyme fitness (log ratio)” value was no more than -4.2. Take A41C G74A C79A A97C A119C: the “polymerase ribozyme fitness (log ratio)” value is no more than -4.2. As for U44A A60C C85A U144G U151A, the “polymerase ribozyme fitness (log ratio)” value was no more than -4.2. For the variant G42U G50A C87G C95G U127A G133U U148G G152U, the “polymerase ribozyme fitness (log ratio)” value was no more than -4.2.

Regarding A41U G59A G86C C96U A113G, the “polymerase ribozyme fitness (log ratio)” value is no more than -4.2. On to A41U C51U G83C C96U A142U, for which the “polymerase ribozyme fitness (log ratio)” value is no more than -4.2. In the case of U44G U56A C87G U135A U145G it was no more than -4.2; in that of A41G U44A U61A A89G G92C C96U, no more than -4.2. On to A41G C87A, for which the “polymerase ribozyme fitness (log ratio)” value is no more than -4.2. In the case of U44G U56G C57U A66C C87U A106G A142U it was no more than -4.2. To A41U C93A C95U G140U A147U belongs no more than -4.2. U44G A64U G83A G128A: the “polymerase ribozyme fitness (log ratio)” value was no more than -4.2.

A41U A52U U61A C95U C108A: the “polymerase ribozyme fitness (log ratio)” value was no more than -4.2. For U44G U55G C75U, the “polymerase ribozyme fitness (log ratio)” value was no more than -4.2.

Turning to U44G U45G C57U C87G C96U C114U C125G A150C, the “polymerase ribozyme fitness (log ratio)” value is no more than -4.2. As for A41C G70A U77G G84A C87U A110G A113G G136A, the “polymerase ribozyme fitness (log ratio)” value was no more than -4.2. Consider C43A G100A G143U G152A, for which the “polymerase ribozyme fitness (log ratio)” value is no more than -4.2.

Consider G42A G59A G81A A107U, for which the “polymerase ribozyme fitness (log ratio)” value was no more than -4.2. Regarding U45A C72U A73U G88A C105A A113G U148A, the “polymerase ribozyme fitness (log ratio)” value was no more than -4.2.

With A40G A52G A73C C95G, the “polymerase ribozyme fitness (log ratio)” value is no more than -4.2.

For A41G C54A U77C C93G C108U G143A, the “polymerase ribozyme fitness (log ratio)” value was no more than -4.2. Turning to G42C G58C C95U, the “polymerase ribozyme fitness (log ratio)” value was no more than -4.2. For A41C C54G U77A A91G C105G G126A G136A A137G, the “polymerase ribozyme fitness (log ratio)” value is no more than -4.2.

Turning to A41U A49C G86A G143U, the “polymerase ribozyme fitness (log ratio)” value was no more than -4.2. On to C43G A66G G86U U109G, for which the “polymerase ribozyme fitness (log ratio)” value was no more than -4.2. For G42U C99U U109C G140C A142C, the “polymerase ribozyme fitness (log ratio)” value is no more than -4.2.

With A40U A64G G86A C105A, the “polymerase ribozyme fitness (log ratio)” value is no more than -4.2. In the case of C43U G58U, the “polymerase ribozyme fitness (log ratio)” value is no more than -4.2.

Regarding A41G C54A U55G A73C G88U, the “polymerase ribozyme fitness (log ratio)” value is no more than -4.2. As for A41C C57U A115C C125U G133U U139A A142C, the “polymerase ribozyme fitness (log ratio)” value is no more than -4.2. In the case of G42C C63U C69U G86A it was no more than -4.2; in that of A40G U148G, no more than -4.2. To C43G G50U C51G G80U G84U C132U belongs no more than -4.2; to A41U A49C C54A C57G A64U G81C C85U C93G, no more than -4.2; to A41C G59U C85A C93U, no more than -4.2. Take A41G C54U G67C C85U U102G C118U G141U: the “polymerase ribozyme fitness (log ratio)” value is no more than -4.2.

Regarding G42A U56A U61G C69G C85U, the “polymerase ribozyme fitness (log ratio)” value is no more than -4.2.

Take A41U G50A C69A G83U: the “polymerase ribozyme fitness (log ratio)” value was no more than -4.2. For G42A U44A A60G G67U C85A G88U G126A G136U, the “polymerase ribozyme fitness (log ratio)” value was no more than -4.2. Turning to C43G G83A G140A, the “polymerase ribozyme fitness (log ratio)” value is no more than -4.2.

For G42C G62A C95U A97C, the “polymerase ribozyme fitness (log ratio)” value was no more than -4.2.

As for A40U U56A A64C A73C A89U A106G U109C U135G, the “polymerase ribozyme fitness (log ratio)” value is no more than -4.2. G42C G50A A97G A122C G133U A142C: the “polymerase ribozyme fitness (log ratio)” value is no more than -4.2. Consider U44A U144G, for which the “polymerase ribozyme fitness (log ratio)” value was no more than -4.2. Turning to U45A G46A G67U A122G, the “polymerase ribozyme fitness (log ratio)” value was no more than -4.2. Turning to G42A G50C U56A C75G C95U A121G, the “polymerase ribozyme fitness (log ratio)” value is no more than -4.2. With G42C U61G U78C, the “polymerase ribozyme fitness (log ratio)” value was no more than -4.2. To G42A C87U G88A A121G U148G belongs no more than -4.2; to U45A C63U G84U C85A U101G C129A, no more than -4.2. On to U44A G84U G94C A107U G126A G140U A142C, for which the “polymerase ribozyme fitness (log ratio)” value was no more than -4.2. Turning to C43U G58A G74A C75U C105A A110G, the “polymerase ribozyme fitness (log ratio)” value is no more than -4.2. Consider U44A C72A C96U C114U, for which the “polymerase ribozyme fitness (log ratio)” value was no more than -4.2. On to A41C C85U C96A C105G C125U, for which the “polymerase ribozyme fitness (log ratio)” value was no more than -4.2. In the case of G42C U53A C72U C93A G143A U146G it was no more than -4.2.

Consider A41C G50C A66C A91G A97G G140U, for which the “polymerase ribozyme fitness (log ratio)” value is no more than -4.2. For the variant C43U G46U A47U G59C C87U U90C A98U, the “polymerase ribozyme fitness (log ratio)” value was no more than -4.2.

As for C43A G84A C99A U127A G128U C131A, the “polymerase ribozyme fitness (log ratio)” value is no more than -4.2. With U44A A66U U90G C95A A119U G136C A142G, the “polymerase ribozyme fitness (log ratio)” value is no more than -4.2. As to C43U U53C U55A U56A C57U A121U A122U, the “polymerase ribozyme fitness (log ratio)” value is no more than -4.2. In the case of U44G G46A U61G C85A A115G U127C it was no more than -4.2; in that of A40U U90G A106G, no more than -4.2.

A41C A60G C85G G88C: the “polymerase ribozyme fitness (log ratio)” value is no more than -4.2. For U44A G84A A113G C114U U145C, the “polymerase ribozyme fitness (log ratio)” value was no more than -4.2. Regarding G42C A91G C131G, the “polymerase ribozyme fitness (log ratio)” value was no more than -4.2. In the case of U44G C69U U78G C131G G141A A142U, the “polymerase ribozyme fitness (log ratio)” value is no more than -4.2. Turning to A40U G59C C69G G81C C108U U135A, the “polymerase ribozyme fitness (log ratio)” value is no more than -4.2.

As to A41G G50C C75A G84A C125A G140C A142G, the “polymerase ribozyme fitness (log ratio)” value was no more than -4.2. With A40G C72G C93A U102C A110U, the “polymerase ribozyme fitness (log ratio)” value is no more than -4.2. In the case of A40U G94C C105G A137C A138U U146A, the “polymerase ribozyme fitness (log ratio)” value is no more than -4.2.

For U45A A60G C116G U139A A142G, the “polymerase ribozyme fitness (log ratio)” value was no more than -4.2. For A40U A73U C85G G86A A119C, the “polymerase ribozyme fitness (log ratio)” value was no more than -4.2. Turning to A40U C95U A115G C118U, the “polymerase ribozyme fitness (log ratio)” value was no more than -4.2. For the variant A41U A60U G83C C95U, the “polymerase ribozyme fitness (log ratio)” value is no more than -4.2. Regarding G42A A66C C95U G126U, the “polymerase ribozyme fitness (log ratio)” value is no more than -4.2.
